# According to article PMC5892938:
# The other results are listed elsewhere or left out. The source does not settle which construct or isoform was used.
# Biological target: GST-SBP-ILF3 (Homo sapiens) (UniProt Q12906)
# Assay: targeted RNA Bind-n-Seq
# Conditions: RBNS binding buffer: 25 mM Tris pH 7.5, 150 mM KCl, 3 mM MgCl2, 0.1% Tween, 0.5 mg/mL BSA, 1 mM DTT; 27 nM protein, 750 pM RNA pool; temperature not stated; high values mean tight binding; sequences stand for … in GGGUAAAAGCGAGGUGAA…CGGGACAAGUAUUAUGGG
row,Sequence,binding signal (log2 fold change)
1,GUUGGUGGUGUUGGCUUCUAACACCGCCAG [gtspaired],-0.662
2,UUUUUUUUUUGAGACUGACUCAGUCUUCUA [tttttgagapaired],0.201
3,UUUUUUUUUUGAGAUGGUUGCCAUCUUCUG [tttttgagapaired],0.528
4,UUUUUUUUUUGAGAGGGGGACCCUCUCCAG [tttttgagapaired],0.666
5,UUUUUUUUUUGAGACUGGUACAGUCUCCUA [tttttgagapaired],-0.0204
6,GUUGUGUGUGUUGGAUUCUAACACACGCGA [gtspaired],-0.42
7,UUUUUUUUUUGAGACUGGUACAGUCUUCUG [tttttgagapaired],0.362
8,UUUUUUUUUUGAGAGGGGGCCCCUCUUCUA [tttttgagapaired],0.837
9,UUUUUUUUUUGAGAUGGUCCCCAUCUCCUA [tttttgagapaired],0.661
10,UUUUUUUUUUGAGAGCGGGACGUUCUUCUA [tttttgagapaired],0.459
11,GGUGGUGGUGUUGGCAUCUAACACCGCCGC [gtspaired],-0.462
12,GGUGGUGGUGUUGGUCUCUAACACCAUCGC [gtspaired],-0.65
13,UUUUUUUUUUGAGAUCGGUGCGAUCUCCGG [tttttgagapaired],0.259
14,UUUUUUUUUUGAGAGGGCAUCCCUUUCCAG [tttttgagapaired],0.404
15,GUGUGGUGUGUUGGAACCUAACACACUACG [gtspaired],-0.726
16,UUUUUUUUUUGAGAGCGAGCCGCUCUCCGG [tttttgagapaired],0.249
17,UUUUUUUUUUGAGAGCGUGUCGCUCUCCAG [tttttgagapaired],0.721
18,GUGUGUUGUGUUGGAUCCUAACACAACGCG [gtspaired],-0.36
19,UUUUUUUUUUGAGAGCGAUGCGUUCUCCAG [tttttgagapaired],0.343
20,UUUUUUUUUUGAGACGGUGUCCGUCUUCUA [tttttgagapaired],0.745
21,GUGUGGUGUGUUGGACCCUAACACACCGCG [gtspaired],-0.484
22,UUUUUUUUUUGAGACUGGUUCAGUCUCCUA [tttttgagapaired],0.00607
23,UUCUUCCUUCCUCCUCGGGAGGAGGGGAGA [ctspaired],-0.46
24,GGUUGUGGUGUUGGCAUCUAACACCGCAGC [gtspaired],-0.685
25,UUUUUUUUUUGAGACGGGCGCCGUCUCCAG [tttttgagapaired],0.703
26,UUUUUUUUUUGAGACCGGGGCGGUUUCCAG [tttttgagapaired],0.744

row,Sequence,binding signal (log2 fold change)
1,GUUGUGUGUGUUGGCCUCUAACACACACAG [gtspaired],-0.184
2,UUUUUUUUUUGAGACGGGGUCCGUCUCCUA [tttttgagapaired],0.726
3,UUUUUUUUUUGAGAGUGUGACAUUCUCCUA [tttttgagapaired],0.414
4,GUGUGUUGUGUUGGUCCCUAACACAGCGCA [gtspaired],-0.572
5,UUUUUUUUUUGAGACCGUAGCGGUCUCCAG [tttttgagapaired],0.589
6,UUUUUUUUUUGAGACUGCUGCAGUCUCCUG [tttttgagapaired],0.811
7,UUUUUUUUUUGAGAGCGAACCGCUCUCCAG [tttttgagapaired],0.154
8,GUGUGUGGUGUUGGAAUCUAACACCGCAUA [gtspaired],-0.677
9,GGUUGUGGUGUUGGCGCCUAACACCGCAGC [gtspaired],-0.251
10,UUUUUUUUUUGAGAUGGUGUCCGUCUCCUG [tttttgagapaired],1.1
11,UUUUUUUUUUGAGACGGGGUCCGUCUCCGG [tttttgagapaired],0.525
12,GUGUGUGGUGUUGGAACCUAACACCAUACG [gtspaired],-0.429
13,UUUUUUUUUUGAGACGGGCUCCGUCUUCUG [tttttgagapaired],0.476
14,GGUGUGUGUGUUGGAAUCUAACACACGCGC [gtspaired],-0.519
15,GUGUUGUGUGUUGGCACCUAACACACAGCG [gtspaired],-0.697
16,UUUUUUUUUUGAGACGGAUGCCGUCUUCUA [tttttgagapaired],0.486
17,UUUUUUUUUUGAGACUGUUGCAGUCUCCGG [tttttgagapaired],0.476
18,GUGGUGUGUGUUGGCCCCUAACACAUACCG [gtspaired],0.0514
19,UUUUUUUUUUGAGACCGUGUCGGUCUCCAG [tttttgagapaired],0.562
20,UUUUUUUUUUGAGACGGAAGCCGUCUCCAG [tttttgagapaired],0.343
21,UUUUUUUUUUGAGAGGGAAUCCCUCUCCAG [tttttgagapaired],0.0228
22,GUGUGUUGUGUUGGUCCCUAACACAGCGCG [gtspaired],-0.48
23,UUUUUUUUUUGAGAGGGUGACCCUCUCCGG [tttttgagapaired],0.26
24,GUGUGGUGUGUUGGUGCCUAACACACUAUA [gtspaired],-0.654
25,UUUUUUUUUUGAGAGGGGCACCCUCUCCAG [tttttgagapaired],0.664
26,GUGUGGUGUGUUGGCGUCUAACACACCGCA [gtspaired],-0.102

row,Sequence,binding signal (log2 fold change)
1,UUUUUUUUUUGAGACCGUAGCGGUCUCCUG [tttttgagapaired],0.721
2,GGUGUUGGUGUUGGACUCUAACACCGAUAC [gtspaired],-0.742
3,UUUUUUUUUUGAGACCGAGACGGUCUCCUA [tttttgagapaired],0.0271
4,UUUUUUUUUUGAGACGGUCCCCGUCUCCUA [tttttgagapaired],0.567
5,GGUGGUUGUGUUGGCACCUAACACAGCUAC [gtspaired],-0.575
6,GUGUGUGGUGUUGGCCUCUAACACCACACG [gtspaired],-0.425
7,UUUUUUUUUUGAGAGUGUGGCAUUCUCCUA [tttttgagapaired],0.399
8,UUUUUUUUUUGAGAUGGAUACCAUCUCCGG [tttttgagapaired],-0.0318
9,UUUUUUUUUUGAGAGCGAGCCGUUCUCCUA [tttttgagapaired],0.122
10,UUUUUUUUUUGAGAACGGUGCGUUCUUCUA [tttttgagapaired],0.26
11,UUUUUUUUUUGAGACGGAGUCCGUUUCCGG [tttttgagapaired],0.407
12,UUUUUUUUUUGAGACCGAAGCGGUUUCCAG [tttttgagapaired],0.647
13,GGUGGUUGUGUUGGCGUCUAACACAGCCGC [gtspaired],-0.642
14,GUGUUGUGUGUUGGCGUCUAACACACAACG [gtspaired],-0.0716
15,GGUGUGUGUGUUGGCCUCUAACACAUACGC [gtspaired],-0.529
16,UUUUUUUUUUGAGAUGGACCCCAUCUCCGG [tttttgagapaired],0.599
17,GUGUGGUGUGUUGGCACCUAACACACCGCA [gtspaired],-0.477
18,UUUUUUUUUUGAGAACGAGCCGUUCUCCUA [tttttgagapaired],-0.0409
19,GGUUGUGGUGUUGGCGUCUAACACCGCGAC [gtspaired],-0.734
20,UUUUUUUUUUGAGAUGGCUUCCAUCUCCGG [tttttgagapaired],0.29
21,UUUUUUUUUUGAGAACGAGACGUUCUCCUA [tttttgagapaired],0.028
22,UUUUUUUUUUGAGACUGUUUCAGUUUCCUA [tttttgagapaired],0.0819
23,GUGUGUGGUGUUGGCGCCUAACACCGCGCA [gtspaired],-0.3
24,UUCCUUCUUCCUCCGGGGGAGGGAGAGGGA [ctspaired],-0.809
25,UUUUUUUUUUGAGACUGUGUCAGUCUCCUA [tttttgagapaired],0.5
26,UUUUUUUUUUGAGACCGAGACGGUUUCCUG [tttttgagapaired],0.817

row,Sequence,binding signal (log2 fold change)
1,GGUGGUUGUGUUGGAGUCUAACACAGCCGC [gtspaired],-0.618
2,UUUUUUUUUUGAGACGGUGUCUGUCUCCUG [tttttgagapaired],1.08
3,GUGUGGUGUGUUGGUCCCUAACACACCAUA [gtspaired],-0.667
4,UUUUUUUUUUGAGAGUGCGACAUUCUUCUA [tttttgagapaired],0.138
5,UUUUUUUUUUGAGAUGGAACCCAUCUCCUG [tttttgagapaired],0.128
6,GGUUGGUGUGUUGGUGUCUAACACAUCGAC [gtspaired],-0.486
7,GUGUUGUGUGUUGGAUCCUAACACACAGCA [gtspaired],0.0682
8,GUGGUUGGUGUUGGCUUCUAACACCGAUCA [gtspaired],-0.881
9,UUUUUUUUUUGAGAGUGCAACAUUCUCCAG [tttttgagapaired],0.00839
10,UUUUUUUUUUGAGAUCGGCACGAUCUUCUA [tttttgagapaired],0.0275
11,UUUUUUUUUUGAGAUCGGUCCGAUCUCCAG [tttttgagapaired],0.438
12,UUUUUUUUUUGAGACCGGGUCGGUUUCCAG [tttttgagapaired],0.571
13,UUUUUUUUUUGAGACCGCGACGGUCUCCGG [tttttgagapaired],0.416
14,UUUUUUUUUUGAGAGCGAGUCGUUCUCCAG [tttttgagapaired],0.122
15,UUUUUUUUUUGAGAUCGGAUCGAUCUCCGG [tttttgagapaired],0.236
16,UUUUUUUUUUGAGACGGGCUCCGUCUCCUA [tttttgagapaired],0.587
17,GUUGUGUGUGUUGGCUUCUAACACACGCAG [gtspaired],-0.766
18,UUUUUUUUUUGAGAGGGCUACCCUCUUCUG [tttttgagapaired],0.685
19,UUUUUUUUUUGAGACCGGAACGGUUUUCUA [tttttgagapaired],0.0897
20,UUUUUUUUUUGAGAGGGUAUCCCUUUCCAG [tttttgagapaired],0.0726
21,GUGGUGUGUGUUGGUUCCUAACACACAUCG [gtspaired],-0.803
22,GGUGUGUGUGUUGGUGCCUAACACAUACGC [gtspaired],-0.869
23,GUUGGUGGUGUUGGACCCUAACACCGCCGA [gtspaired],-0.00764
24,UUUUUUUUUUGAGACUGUCACAGUCUUCUG [tttttgagapaired],0.402
25,GUGUGUUGUGUUGGUCCCUAACACAGCACG [gtspaired],-0.565
